The results in this text go back to PMC10726135.

This is one part of the list. At the low end of the ranking the order means little. The protein was read in a cell extract, so binding may be indirect.

For this assay, the target named is T1, HNF4alpha8 (COS-7 nuclear extract) (UniProt P41235-5).
T1 sequence: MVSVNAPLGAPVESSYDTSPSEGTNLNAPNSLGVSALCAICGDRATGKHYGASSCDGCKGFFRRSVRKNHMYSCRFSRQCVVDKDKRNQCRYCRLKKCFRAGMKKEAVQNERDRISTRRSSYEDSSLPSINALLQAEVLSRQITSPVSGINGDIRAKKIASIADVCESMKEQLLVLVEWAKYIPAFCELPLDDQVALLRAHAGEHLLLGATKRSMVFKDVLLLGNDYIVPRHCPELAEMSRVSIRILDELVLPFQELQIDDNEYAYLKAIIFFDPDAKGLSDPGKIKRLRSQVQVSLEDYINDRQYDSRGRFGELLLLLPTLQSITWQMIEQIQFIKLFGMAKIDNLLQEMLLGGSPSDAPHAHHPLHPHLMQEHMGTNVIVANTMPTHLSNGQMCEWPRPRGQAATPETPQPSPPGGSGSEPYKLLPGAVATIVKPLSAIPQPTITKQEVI
Briefly: protein-binding microarray. Particulars: COS-7 nuclear extract on double-stranded Agilent 4x180k PBM; binding buffer, salt, pH and temperature not given; high values mean tight binding; double strand, one strand shown; sequences stand for … in …GCCTAGGGAGATTAGAGTATCGGTCGA
Take GTCTAGCTTGTTCTCTCCCCCAACCCCACC: the binding signal (log2 normalized intensity) is 5.46.

As to CGGCGGGGTCACGTGGGGCCGGTACAAAAG, the binding signal (log2 normalized intensity) amounted to 1.71.

Regarding TGCTCTCTGTCCCTGCACCCTACCCCCATA, the binding signal (log2 normalized intensity) worked out at 4.73.

For the sequence GCCTGCATGGGCTGTCACCTTTACCCCCAC, the binding signal (log2 normalized intensity) stood at 5.65.

Regarding ATATGTGCCTGCCTTATACAACCTCTGTAA, the binding signal (log2 normalized intensity) amounted to 1.41.

AGAATGAGACCTGCTAGGCTGCATTCTCTG: the binding signal (log2 normalized intensity) was -1.23.

TACTGCCTCAGGGAGGAGTTGTCATCATAA: the binding signal (log2 normalized intensity) was -0.42.

In the case of TCTTAGAAGATAAAGTGTCTCCCTCTGCAG, the binding signal (log2 normalized intensity) worked out at 1.07.

Turning to TCTATCAAAGGAGAAAAAGTCAACACTTAG, the binding signal (log2 normalized intensity) was -1.33.

On to CAGCAGTAGGCTCTCGGGCCAGCTGTACAA, for which the binding signal (log2 normalized intensity) was -1.31.

Regarding CTGAGGAAGTGCTGACCTTTGGTCTAAACC, the binding signal (log2 normalized intensity) was determined as 6.93.

As for ACTGCTCCCTCTGCTCCCCTGGCCTCACCC, the binding signal (log2 normalized intensity) amounted to 2.87.

For AGTTGGAATTTCAGAAGCAGGTCAATAGGG, the binding signal (log2 normalized intensity) worked out at 0.429.

Take AGCGGAGCATCCCTCGGGCCGGGAAACGCC: the binding signal (log2 normalized intensity) was -1.39.

In the case of TGACTATAGCGTCTCCTGGCCTCTGTGAAG, the binding signal (log2 normalized intensity) was -1.38.

On to ACTGCAAGGCAAACACTCAAGGTCCAAACA, for which the binding signal (log2 normalized intensity) was determined as 2.43.

Take TCCATTTCTAGACACCAAACACAGTTGCTG: the binding signal (log2 normalized intensity) was -1.37.

Consider TCGACCTTTGTGGGCTTCAGACATTGCAAA, for which the binding signal (log2 normalized intensity) amounted to 1.17.

As to TGCCCTTTGCCCTCACTGGTAGAAGGCAGC, the binding signal (log2 normalized intensity) was found to be 5.22.

As for TTGCCCTTCTTGGATGCCCTTCCCTAACCC, the binding signal (log2 normalized intensity) stood at 3.04.

In the case of AGCGTACGCAGGGCGGCCGGCGGAGCGCCG, the binding signal (log2 normalized intensity) is -1.42.

With CCATGCAAATTGCTGACTTTCTGTGTCTTG, the binding signal (log2 normalized intensity) was 0.802.

TACATAACCACCACTGGGCAATTGGTTTCC: the binding signal (log2 normalized intensity) is -0.698.

With TGACCTTGGACTCTGCCCTTGGCCTACTTA, the binding signal (log2 normalized intensity) was 5.04.

GTAGTTACCTGATGAAGCAATAGGAATCAC: the binding signal (log2 normalized intensity) is -1.23.

Regarding GGGCGTGAACTGTGACTTTTATCTTAGGTA, the binding signal (log2 normalized intensity) came out at 1.52.

As for CTATCAGGAAACTCTTTCCTAACAGTGAAT, the binding signal (log2 normalized intensity) is -1.16.

For the sequence GCTGCCTTTTAGCTCCATACTTCAAGAAGT, the binding signal (log2 normalized intensity) is -1.11.

ATGTGACCTTCACCCTGCTGTAAATAAAAT: the binding signal (log2 normalized intensity) is 2.75.

Regarding CTGCCTGCTTGGCCTCTCCACTTGGGTATC, the binding signal (log2 normalized intensity) was -0.182.

With TTGCCCTTTAGTTATCTCTTCTTTCTGTAT, the binding signal (log2 normalized intensity) is 2.37.

As for TCCAAAATATTTGCAGTGAGAAGAGGAAAA, the binding signal (log2 normalized intensity) is -1.29.

Consider TCAAAAATGCTTTACAAGGTGGTTGCTGTT, for which the binding signal (log2 normalized intensity) is 1.15.

As to CAGTAAGAGCATCAGCAATGAACAAAGGTC, the binding signal (log2 normalized intensity) turned out to be 5.1.

Turning to CCGCATTTTCCTTTGTTGGTTTTGCCCGAG, the binding signal (log2 normalized intensity) was determined as 2.03.

For AAGAGAGCCATTGGTGTAACTCTGGGTCTG, the binding signal (log2 normalized intensity) came to 1.25.

On to CACTGAAGTGAGTTAATAAATACTGGAGGA, for which the binding signal (log2 normalized intensity) was -1.3.

With GTTGAGGTCAGACATGGCTGTATGTGACAT, the binding signal (log2 normalized intensity) worked out at 1.09.

For the sequence TCAGGGAGCTTTTACCTCAAATAAAGGTCA, the binding signal (log2 normalized intensity) was determined as 3.83.

In the case of TGACAAAGACAGATTAGATCTGCGTAAGGG, the binding signal (log2 normalized intensity) was -1.24.

Turning to TATCTTCAATGATAAGGAATGAGGAGTCAG, the binding signal (log2 normalized intensity) is -0.96.

TGACTTTCAGAAAGTCCTTGGAAACTGTTC: the binding signal (log2 normalized intensity) amounted to 0.358.

As to CAATGGCCTTGCTGCGGATCAAAGGAGCTG, the binding signal (log2 normalized intensity) is -1.03.

Consider TGGTGCTATGTCCCTGACTGTGTGGCTTGC, for which the binding signal (log2 normalized intensity) came to 0.908.

As to CCACTTGGTGACTGTCATTTCCTTACAAAC, the binding signal (log2 normalized intensity) is -1.24.

For AGAGGATTAAAAGATAAAACATTGTACCTT, the binding signal (log2 normalized intensity) amounted to 2.73.

In the case of GAGCCAGTGAAGACTGAAAAGAGATAACTA, the binding signal (log2 normalized intensity) is -1.36.

Consider CCCTTATCAGCTTATCTCAAGAATTGTCTA, for which the binding signal (log2 normalized intensity) worked out at 0.938.

Consider GATCAGTGAGAAGAGAAACACATGCAATCA, for which the binding signal (log2 normalized intensity) was -1.25.

Turning to GTTAGATTAGTGTGCAGCTTTGTGTAAAAC, the binding signal (log2 normalized intensity) was determined as 0.626.

As for ATACTATTGATAACATCTAACAGCTGATGA, the binding signal (log2 normalized intensity) is -1.12.

With TACACAGCTGATGGAAGTTTGCCCTGGTTG, the binding signal (log2 normalized intensity) amounted to 1.98.

Turning to TGCATTGGAGGCCAGATGCCAACTGTGGAC, the binding signal (log2 normalized intensity) amounted to 1.31.

Turning to ATTTGGCTTTGAATTCCACTTCTACCACTT, the binding signal (log2 normalized intensity) was -0.21.

Regarding CCCATGGTCTGTAGAAGGCGCTGTGAAGCA, the binding signal (log2 normalized intensity) was -1.22.

On to CCCTGGTCTCTCTTACCCAACCAAAAACAA, for which the binding signal (log2 normalized intensity) turned out to be 3.38.

Consider CACCAAAGCCCAAGGGATCGTCCAAATACC, for which the binding signal (log2 normalized intensity) is -1.26.

Turning to CCTCTCAGGAATGTGGATGCTAAAAGTGAA, the binding signal (log2 normalized intensity) was -0.262.

Consider AATTCCAGTTTGGACTTTGATCCTGATGAC, for which the binding signal (log2 normalized intensity) was determined as 10.

On to TCCTCATTCACCAGGCAATCAGCCTTAGGT, for which the binding signal (log2 normalized intensity) was -1.32.

As to CAAGCCGTTCCCTGTACCTAGAATTCTTTC, the binding signal (log2 normalized intensity) is -0.961.

Regarding TGTAGGGAGTGGTTCCCACAGCCCAACTCG, the binding signal (log2 normalized intensity) was -1.37.

For the sequence TTCCCTTATCAGGACTTTGTGATTACATTG, the binding signal (log2 normalized intensity) is 2.21.

As to CGGCCGACGTGACCCGCCGCCCGAGGTCAC, the binding signal (log2 normalized intensity) is 3.58.

Consider GGTGGTGACCCCAGACCTTAGTCTTCATGG, for which the binding signal (log2 normalized intensity) amounted to 2.03.

On to ACTCCCTTAAATAATGCATACGCTAGCTTT, for which the binding signal (log2 normalized intensity) was -1.32.

As for AGAGTTTTAAAGTATCCCATCCATTTCCCA, the binding signal (log2 normalized intensity) was found to be 0.56.

As for GGAGGACCTCTGGATTACATACCCAAGTTC, the binding signal (log2 normalized intensity) was -0.273.

Turning to CACTGTCTCAGGGTCCACATTCCAGGAATA, the binding signal (log2 normalized intensity) was 2.44.

Turning to GAGTTACACTATCGGCTTCCCTGGTCCTCA, the binding signal (log2 normalized intensity) is -1.27.

As to CCTGCCTTTGTATAAGCCGTGCAAAGTTCA, the binding signal (log2 normalized intensity) was found to be 4.57.

In the case of CAAAGATAAGAAAAAAACAGCACAAAAATG, the binding signal (log2 normalized intensity) is -1.38.
